In all, about 310,000 compounds went through this assay and about 14,000 (4.5%) showed an effect of 50% or more. The effect is printed as a negative number. Some of the results follow.
These molecules were tested against human ether-à-go-go-related gene (hERG) potassium channel (human, UniProt Q12809) (assay: primary screen, population patch clamp on CHO cells stably expressing hERG).
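Further: peak tail current of the secondary pulse compared with the same well before compound.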

human ether-à-go-go-related gene (hERG) potassium channel, sequence (Q12809 whole entry, looked up): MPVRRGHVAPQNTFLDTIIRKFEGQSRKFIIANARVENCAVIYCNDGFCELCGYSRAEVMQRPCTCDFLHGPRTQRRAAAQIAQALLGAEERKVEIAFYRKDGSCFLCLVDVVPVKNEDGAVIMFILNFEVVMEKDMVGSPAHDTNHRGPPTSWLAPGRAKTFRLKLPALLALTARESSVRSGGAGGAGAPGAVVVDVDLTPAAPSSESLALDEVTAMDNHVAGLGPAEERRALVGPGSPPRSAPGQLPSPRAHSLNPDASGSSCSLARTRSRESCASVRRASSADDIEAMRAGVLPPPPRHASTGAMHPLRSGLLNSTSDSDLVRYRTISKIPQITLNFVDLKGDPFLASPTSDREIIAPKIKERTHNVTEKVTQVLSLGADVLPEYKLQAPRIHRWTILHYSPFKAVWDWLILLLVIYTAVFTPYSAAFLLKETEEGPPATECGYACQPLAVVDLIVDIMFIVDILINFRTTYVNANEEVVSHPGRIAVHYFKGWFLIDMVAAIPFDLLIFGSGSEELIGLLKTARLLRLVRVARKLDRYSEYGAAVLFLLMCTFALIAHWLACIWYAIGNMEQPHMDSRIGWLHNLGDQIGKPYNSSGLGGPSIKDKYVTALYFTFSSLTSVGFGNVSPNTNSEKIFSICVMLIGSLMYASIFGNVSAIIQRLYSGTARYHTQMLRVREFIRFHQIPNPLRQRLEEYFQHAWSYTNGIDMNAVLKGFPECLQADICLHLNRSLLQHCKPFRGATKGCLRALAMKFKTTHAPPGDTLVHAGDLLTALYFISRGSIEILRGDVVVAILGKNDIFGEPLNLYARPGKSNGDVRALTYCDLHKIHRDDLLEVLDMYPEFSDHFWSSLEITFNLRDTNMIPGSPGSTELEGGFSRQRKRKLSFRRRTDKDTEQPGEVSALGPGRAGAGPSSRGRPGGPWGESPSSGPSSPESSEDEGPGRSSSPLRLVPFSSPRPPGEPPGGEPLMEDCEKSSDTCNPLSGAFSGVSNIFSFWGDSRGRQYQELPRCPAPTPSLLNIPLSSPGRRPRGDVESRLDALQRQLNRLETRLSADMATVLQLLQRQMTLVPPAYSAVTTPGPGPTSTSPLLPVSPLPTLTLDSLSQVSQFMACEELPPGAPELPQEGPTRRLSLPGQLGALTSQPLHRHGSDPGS

Row | Structure (SMILES) | hERG current change (%, negative = inhibition) at 10uM [%]
1 | CCCc1[nH]c(=O)c(C#N)c2c1COC(C)(C)C2 | 18.2
2 | CN(c1ccc(C(=O)NCc2ccc3c(c2)OCO3)cc1)S(C)(=O)=O | -7.39
3 | CCOc1ccc(N2C(=O)C3C(c4ccccc4F)NN(C(=O)c4ccc(C)cc4)C3C2=O)cc1 (stereo not drawn) | 4.82
4 | O=C(NC1CCCCC1)C1CCN(S(=O)(=O)c2cccc3nsnc23)CC1 | 18.5
5 | Cc1ccc(SCc2ccc(C(=O)NCc3ccncc3)cc2)cc1 | -8.58
6 | Cc1csc(SCC(=O)Nc2nnc(C)s2)n1 | 15
7 | COC(=O)c1c(NC(=O)c2c(Cl)cnn2C)sc(C)c1C | 11.1
8 | CN1CCN(CC(=O)Nc2ccc(Cl)cc2C(=O)c2ccccc2)CC1 | -77.2
9 | Clc1ccc(-c2nc(Cc3ccccc3)no2)cc1 | 11.9
10 | COc1ccccc1CNC(=O)Cn1c(=O)c2cccn2c2cccnc21 | 6.03
11 | O=C(CCC(=O)c1cccs1)NCc1ccc(F)cc1 | -25.1
12 | COc1ccc(/C=C/C(=O)NCCCN2CCOCC2)cc1 | -29.4
13 | CC(C)c1ccccc1NS(C)(=O)=O | 21.2
14 | Cc1ccc(-c2nnc(-c3cc(C)on3)o2)cc1 | 19.6
15 | CC(=O)NCc1ccc(-c2csc(NC(=O)CCCc3nc4ccccc4c(=O)[nH]3)n2)cc1 | 4.05
16 | O=C(C1CC1)N1CCC(C(O)(c2ccccc2)c2ccccc2)CC1 | -13.8
17 | CC1(C)Cc2c(c(=S)nc(-c3ccccc3)n2CCCN2CCOCC2)CO1 | 1.98
18 | O=S(=O)(Nc1cccc(S(=O)(=O)N2CCCCCC2)c1)c1ccccc1 | -24
19 | O=C(CCc1n[nH]c(=O)[nH]c1=O)Nc1cccc([N+](=O)[O-])c1 | 28.3
20 | Cc1ccc(Cl)cc1N1CCN(C(=O)Cc2cn(C)c3ccccc23)CC1 | 3.85
21 | CC1CCCN(C(=O)CCS(=O)(=O)c2ccc3c(c2)NC(=O)C(C)S3)C1 (stereo not drawn) | -1.82
22 | COc1ccc(OC)c(S(=O)(=O)N2CCN(Cc3ccccc3)CC2)c1 | 2.05
23 | CCCN1C(=O)C2(/C(=C(\O)c3ccc4c(c3)OCCO4)C(=O)C(=O)N2CCCOC)c2ccccc21 (stereo not drawn) | -4.06

Row | Structure (SMILES) | hERG current change (%, negative = inhibition) at 10uM [%]
24 | Cn1c(=O)oc2cc(S(=O)(=O)Nc3ccc(O)cc3)ccc21 | 14.2
25 | Cc1c(C(=O)NC(Cc2ccccc2)c2nc3ccccc3[nH]2)cccc1[N+](=O)[O-] (stereo not drawn) | 11.7
26 | Cc1ccc(CNC(=O)C(=O)NCC2OCCN2C(=O)c2cccs2)cc1 (stereo not drawn) | -14.6
27 | Cc1ccc(NC(=O)CN(C)C(=O)c2cccc(S(=O)(=O)N3CCCC3)c2)cc1 | 5.72
28 | COc1ccc(S(=O)(=O)NC(Cc2cnc[nH]2)C(=O)O)cc1 (stereo not drawn) | 21.9
29 | COc1cc(/C=N/Nc2nc(Nc3ccccc3)nc(-n3nc(C)cc3C)n2)cc(OC)c1OC | 1.71
30 | Fc1ccccc1N1CCN(CC2CCCCC2)CC1 | -1.99
31 | CC(C)(C)C(=O)Nc1ccccc1C(=O)NCCCn1ccnc1 | 3.44
32 | C/C(N)=C(/C#N)C(=O)CSc1nnc(-c2ccc3c(c2)OCO3)o1 | 21.2
33 | COc1cccc(-c2nc(CS(=O)CC(=O)N3CCC4(CC3)OCCO4)c(C)o2)c1 (stereo not drawn) | 8.65
34 | Cc1ccccc1-n1c(SCC(=O)NCc2cccs2)nc2ccccc2c1=O | -17.4
35 | Cc1ccc(SCCN2CCN(CCc3ccccc3)CCC2=O)cc1 | -69.6
36 | CC(=O)c1ccc(NC(=O)NC2CCCCCCC2)cc1 | 10.2
37 | Cc1ccc(O)c(N=Nc2ccc(S(=O)(=O)N3CCOCC3)cc2)c1 | 4.01
38 | Cc1ccc(C(=O)COc2ccc3ccc(=O)oc3c2)cc1 | 47.3
39 | CNC(=O)c1ccc(S(=O)(=O)c2ccc(Cl)cc2)c(NC(C)=O)c1 | 18
40 | COCCNC(=O)NC(=O)COC(=O)c1ccc2[nH]c3c(c2c1)CCCC3 | 7.91
41 | COc1ccc(C(=O)CN2CCN(S(=O)(=O)c3cccc([N+](=O)[O-])c3)CC2)cc1OC | -5.28
42 | CCCCn1c(N)c(N(CCC(C)C)C(=O)c2ccc([N+](=O)[O-])s2)c(=O)[nH]c1=O | -51.1
43 | Cc1sc2ncnc(OCC(=O)NCC3CCCO3)c2c1C (stereo not drawn) | 17.4
44 | C=CCNC(=O)c1ccccc1NC(=O)COc1ccccc1 | -12.3
45 | CCCCCc1nnc(NC(=O)c2cccc(S(=O)(=O)N3CCOCC3)c2)s1 | -41.8

Reference: paper PMC4336329 (PLoS ONE, 2015)
